From PubChem BioAssay (NCI)
Where “and” joins values, the source holds several entries; their conditions need not be identical. Equal entries are not always repeated.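 Compound exposure: 48 hours, 5 concentrations, 96-well plates. GI50: concentration for 50% inhibition of growth. TGI is the concentration that stops growth completely.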

Tested on: NCI-H322M lung
Assay: inhibition of tumour cell growth, NCI panel, 48 h

SMILES	GI50	TGI
c1cc(OCCCCCOc2cccc(-c3nc4ccccc4[nH]3)c2)cc(-c2nc3ccccc3[nH]2)c1	5.14 µM	> 100 µM
Cc1nc2ccc(S(=O)(=O)O)cc2c(=O)n1-c1ccc(C(=O)NN2C(=O)C(Cl)C2c2cccs2)cc1 (stereo not drawn)		> 100 µM
CC(=O)n1c2ccc(Br)cc2c2nc3ccccc3nc21		> 100 µM
CC1C(OS(=O)(=O)c2ccc3[nH]c(=S)sc3c2)CC2C3(C)CCC2(C(C)C(=O)O)C(O)C13 (stereo not drawn)		> 100 µM
C=CCN(CC=C)Cc1c[nH]c2ccccc12	23.6 µM	79.3 µM
O=C1C(Cl)=CC2(C=C1Cl)CCN=c1c(O)c3c(c(O)c12)=NC=N3		> 100 µM
CC(=O)O[C@H]([C@H](OC(C)=O)[C@H](C)OC(C)=O)[C@@H](/C=C/[C@H]1CC=CC(=O)O1)OC(C)=O	> 100 µM	> 100 µM
COc1ccc([C@@H]2[C@@H](Oc3ccccc3)C(=O)N2c2cc(OC)c(OC)c(OC)c2)cc1F	0.721 µM	> 100 µM
O=C(CCN1CCOCC1)Nc1ccc(Cn2nnc3c2C(=O)c2nnn(Cc4ccc(NC(=O)CCN5CCOCC5)cc4)c2C3=O)cc1	1.45 µM	> 100 µM
O=C1NC(c2ccccc2Cl)Nc2ccccc21 (stereo not drawn)		> 100 µM
COc1cc(/C=C/C(=O)c2nc3cc(F)ccc3nc2C)cc(OC)c1OC	> 100 µM	> 100 µM
Cn1cc(-c2ccc3c(c2)ncn3-c2cc(NS(=O)(=O)C3CC3)cc(-c3ccc(F)cc3F)c2)cn1	23.8 µM	> 100 µM
COC1=CC(=O)C(O)=C(CC2(C)C(C)CCC3(C)C2CCCC3(C)C)C1=O (stereo not drawn)		19.7 µM
C#CCN(C(=O)C(F)(F)F)C(/C=C\C(=O)OC)(C(=O)OCC)C(=O)OCC		> 100 µM
CN(C)c1ccc(/C=c2/sc3nc(=O)c(-c4ccccc4NC(=O)C(F)(F)F)nn3c2=O)cc1		> 100 µM
Cc1csc(=Nc2ccccc2)n1CCC(O)(P(=O)(O)O)P(=O)(O)O		> 100 µM
CC(C)C(=O)Cc1ccc2ccccc2n1		> 100 µM
COc1ccccc1CNCCCN1C(=O)c2ccc3c4c(ccc(c24)C1=O)C(=O)N(CCCNCc1ccccc1OC)C3=O	0.228 µM	0.707 µM
Cc1ccc(-c2nc([P+](c3ccccc3)(c3ccccc3)c3ccccc3)c(N3CCOCC3)o2)cc1	1.65 µM	10.4 µM
COc1cc2c(cc1OCCCOc1cc3c(cc1OC)C(=O)N1CCC[C@H]1C(=O)N3)N=C[C@@H]1CCCN1C2=O		66 µM
COC(=O)/C=C1\C(CO[Si](C)(C)C(C)(C)C)OC(n2ccc(=O)[nH]c2=O)C1O (stereo not drawn)		55.1 µM
CC(C)c1ccc2c(c1)CCC1C2CCCC1(C)NCc1ccccc1 (stereo not drawn)	3.66 µM	12.4 µM

SMILES	GI50	TGI
CC(C)(C)c1ccc(OCCOCCOc2ccc(C(C)(C)C)cc2S(N)(=O)=O)c(S(N)(=O)=O)c1		> 100 µM
N=C(N)SCc1ccc(Cl)c2ccccc12 (tested in a mixture with another compound)		25.8 µM and 28.8 µM
O=c1oc2ccccc2c(-c2ccc(O)cc2)c1Oc1ccccc1		46 µM
CCOC(=O)c1c(Cl)c2c(n1Cc1ccccc1)-c1oncc1CCC2	> 100 µM	> 100 µM
OCc1ccc(N2CCc3ccc(F)cc3C2)cc1Cl	2.99 µM	15.2 µM
CC[C@@H]1CC[C@@H]2[C@H](CC[C@]3(C)[C@@H](O[N+](=O)[O-])CC[C@@H]23)[C@H]1C(C)=O		> 100 µM
NCCc1ccc(S(=O)(=O)O)cc1[N+](=O)[O-]		> 100 µM
COC(=O)N/N=C(\C)c1sc(-c2nc(C)c(/C(C)=N/NC(=O)OC)s2)nc1C		> 100 µM
COc1cc(/C=C/c2cc(/C=C/c3ccc(O)c(OC)c3)n(C(=O)Nc3ccc(C)cc3)n2)ccc1O	0.544 µM	5.76 µM
CC(C)(C)C1CC[C@H]2c3c([nH]c4ccccc34)[C@H]3C(=O)N(c4ccc(F)cc4)C(=O)[C@H]3[C@H]2C1 (stereo partly drawn)		44.3 µM
O=[N+]([O-])c1ccc(/C=C(/c2ccc([N+](=O)[O-])o2)S(=O)(=O)c2ccccc2)cc1		> 100 µM
CC1OC(OC2C(OC(=O)[C@]34CCC(C)(C)C[C@H]3C3=CC[C@@H]5[C@@]6(C)CC[C@H](OC7OC(CO)C(O)C(O)C7OC7OC(CO)C(O)C(O)C7O)C(C)(C)[C@@H]6CC[C@@]5(C)[C@]3(C)CC4)OCC(O)C2O)C(O)C(O)C1OC1OCC(O)C(O)C1O (stereo partly drawn)		24.3 µM
O=C1NC(=O)N(S(=O)(=O)c2cc(C(=O)Nc3ccc(Cl)cc3)c(Cl)cc2S)S(=O)(=O)N1	22.1 µM	48.5 µM
Fc1ccc2c(c1)SC1=Nc3sc4cc(F)ccc4[n+]3CN12		82.2 µM
O=C1C[C@@H]2OCC=C3C[N+]4([O-])CC[C@]56c7ccccc7N1[C@H]5[C@H]2[C@H]3C[C@@H]64 (stereo partly drawn)	> 100 µM	> 100 µM
CCOC(=O)C1(C)CCC(C(=O)OC)C1=O (stereo not drawn)		> 100 µM
C#CCCCCCC(=O)N[C@H]1C=C[C@@H]2/C=C(C)/C=C/[C@@H](C)[C@H]([C@H](C)[C@H](O)[C@@H](C)NC(C)=O)OC(=O)/C=C/C=C(C)\C=C\[C@]2(C)C1	0.178 µM	> 40 µM
Cc1cn([C@H]2C[C@@H](N3C(=O)c4ccccc4C3=O)[C@@H](CO[Si](C)(C)C(C)(C)C)O2)c(=O)[nH]c1=O		> 100 µM
S=c1[nH]nc(Cn2c3ccc(Br)cc3c3nc4ccccc4nc32)o1		> 100 µM
ON1CCc2c([nH]c3ccccc23)C1c1ccc(Cl)cc1 (stereo not drawn)		> 100 µM
C(=C\c1cc[n+](CCc2ccccc2)cc1)/c1ccccc1		58.5 µM
CC(C)(C)C1CCC(O)(c2ccccc2)CC1 (stereo not drawn)		> 100 µM and 64.5 µM

SMILES	GI50	TGI
COc1nc(N)nc2nc[nH]c12	> 800 µM and 532 µM	257 µM and > 800 µM and > 1000 µM
CC(=O)NC(CCCNC(=O)OCc1ccccc1)C(=O)NCc1ccccc1 (stereo not drawn)		> 100 µM
CC(=O)Nc1ccc2c(c1)C(=O)c1ccccc1-2		> 100 µM
O=C(CC1(O)C(=O)Nc2c(Cl)cc(Cl)cc21)c1cccc([N+](=O)[O-])c1 (stereo not drawn)		> 100 µM
COC(=O)c1c(C)cccc1C1CN=NC12Cc1cc(C)c(C)cc1C2=O (stereo not drawn)		> 100 µM
OC[C@H]1C[C@](O)(c2ccc(F)cc2)[C@@H](c2ccc(F)cc2)O1	> 100 µM	> 100 µM
COC(=O)C1(CCCCl)CCCN1C(=O)OC(C)(C)C (stereo not drawn)		> 100 µM
CCOC(=O)C1C(NC(N)=O)N(Cc2ccccc2)C(=O)N1Cc1ccccc1 (stereo not drawn)		> 100 µM
CCCCCCCCCCCCOC1C(C(COC2OC(C(O)CO)C3OC(C)(C)OC23)OC(=O)Nc2ccccc2)OC2OC(C)(C)OC21 (stereo not drawn)	11.7 µM	26.5 µM
O=C1[C@H](Cc2ccc(O)cc2)N2C(=O)CCN(C(=O)NCc3ccccc3)[C@H]2CN1Cc1cccc2ccccc12	4.01 µM	46.3 µM
C=CCN1C(=O)NC(=O)/C(=C/c2c3ccccc3cc3ccccc23)C1=O		55.3 µM
O=C(O)c1ccccc1/C=C1\Cc2cc3c(cc2C1=O)CCC3		> 100 µM
C/C(=C\c1ccccc1)C(O)C(=O)c1nc2ccc(Cl)cc2[nH]c1=O (stereo not drawn)		> 100 µM
O=C1NC(=O)C2C3C=CC(C12)C1C2C(=O)NC(=O)C2C31 (stereo not drawn)	> 1000 µM	250 µM and > 1000 µM
COc1ccc2cc3n(c(=O)c2c1)CCc1c-3cc(OC)c(OC)c1OC		> 100 µM
O[C@@H]1[C@H](OC2c3ccccc3-c3ccccc32)[C@H](OCc2ccccc2)[C@@H]2OC[C@H]1O2		> 100 µM
N#CCC(=O)N/N=C\C(O)C(O)C(O)C(O)CO (stereo not drawn)		> 100 µM
COC(=O)c1sc(=S)sc1SCc1cccc(CSc2sc(=S)sc2C(=O)OC)c1		> 100 µM
CCCN1C(=O)CN(S(=O)(=O)c2ccc(Cl)cc2)C1=O		> 100 µM
NC(Cc1cc(I)c(Oc2ccc(O)c(I)c2)c(I)c1)C(=O)O (stereo not drawn)		> 100 µM
O=S(=O)(Nc1ccccc1)c1ccc(C2CC3(Cl)C(Cl)=C(Cl)C2(Cl)C3(Cl)Cl)cc1 (stereo not drawn)	4.11 µM	15.3 µM
COc1cc(S(=O)(=O)Nc2nc(-c3ccc(N=Cc4ccccc4O)cc3)cs2)ccc1Cl		> 100 µM

SMILES	GI50	TGI
CCOC(=O)c1c(C)n(-c2ccc(C)cc2)c(=O)c2ccccc2c(=O)c2c(=O)ccc(=O)c1=2		52.7 µM
CC(=O)O[C@H]1C[C@@H]2[C@@]3(C)CC[C@H]4C[C@@]4(C)[C@@H]3CC[C@@]2(C)C2=CCC3=C(COC3=O)[C@]21C	15.2 µM	35.7 µM
N#CC1=C(N)Oc2c(ccc3ccccc23)C1c1cc2ccccc2n2nnnc12 (stereo not drawn)	2.15 µM	> 100 µM
CC1(C)CC(=O)C(C(=O)Nc2cccs2)=C(O)C1		> 100 µM
CCCCCCCCCCN=C(N)c1ccc(N2CCN(c3ccc(C(N)=NCCCCCCCCCC)cc3)CC2)cc1	3.79 µM	16.8 µM
C(=NC12CC3CC(CC(C3)C1)C2)C1CCCCC1		> 100 µM
O=S(=O)(O)C(c1ccccc1)C(O)c1ccccc1 (stereo not drawn)		> 100 µM
CN(C)[C@@H]1C(=O)C(C(=O)NCc2nc3[nH]cnc(=S)c3[nH]2)=C(O)[C@@]2(O)C(=O)C3=C(O)c4c(O)cccc4[C@@](C)(O)[C@H]3C[C@@H]12	> 100 µM	> 100 µM
COc1ccc(-n2c(=O)c3ccccc3n(Cc3ccc(C(=O)NO)cc3)c2=O)cc1	3.17 µM	> 100 µM
C=C1CC[C@@H]2[C@](C)(COC(=O)CCC(=O)OC)CCC[C@@]2(C)[C@@H]1CCC1=CC(=O)OC1		> 100 µM
N#CC1=C(S)N(C2OC(CO)C(O)C(O)C2O)C(c2ccccc2)=CC1c1ccco1 (stereo not drawn)		> 100 µM
O=C(/C=C(\[O-])c1ccccc1)CCCCCCC(=O)/C=C(\[O-])c1ccccc1.O=C(/C=C(\[O-])c1ccccc1)CCCCCCC(=O)/C=C(\[O-])c1ccccc1.O=C(/C=C(\[O-])c1ccccc1)CCCCCCC(=O)/C=C(\[O-])c1ccccc1.[Y+3].[Y+3]	> 50 µM	> 50 µM
COc1cc(Nc2nc3cc(C)ccc3nc2-c2ccccc2)cc(OC)c1OC		> 100 µM
CCOC(=O)c1cn(-c2ccc([N+](=O)[O-])cc2)c(=S)n2c1nc1ccccc12		> 100 µM
O=C1Nc2ccc(Cl)cc2/C1=N/c1nc(-c2ccc(Cl)cc2)cs1	2.39 µM	8.52 µM
Cc1ccccc1NC(=O)C1C(=O)N(c2ccccc2C)C(=O)/C1=N\NC(N)=O (stereo not drawn)		> 100 µM
CNCc1cccc2c1OCCOCCOCCNS(=O)(=O)c1ccc(cc1)-c1cnc(N)c(n1)C(=O)N2	1.67 µM	7.17 µM
Cc1ccc2c(c1C)CC1(Cc3ccc(C)c(C)c3C1=O)C2=O (stereo not drawn)		88.9 µM
COc1ccc(/C=C2\C[C@H]3[C@@H]4CC=C5C[C@@H](O)CC[C@]5(C)[C@H]4CC[C@]3(C)\C2=N\O)cc1		> 100 µM
O=C(NC1CCCCC1)c1n[nH]nc1Cl		> 100 µM
COc1cc(NC(=O)COc2ccccc2)c(C(N)=O)cc1OC	5.77 µM	> 100 µM
